The GPR68 mutational scans of Howard et al. (2025)
Scores with a large standard error are left out. Not listed are two conditions whose scores span a narrow range. Names with del lack the residues named; names with ins carry added residues between the positions named. For part of these data: The data file names ogerin without a concentration.

B1: GPR68, Q15743 (parent)
chain: MGNITADNSSMSCTIDHTIHQTLAPVVYVTVLVVGFPANCLSLYFGYLQIKARNELGVYLCNLTVADLFYICSLPFWLQYVLQHDNWSHGDLSCQVCGILLYENIYISVGFLCCISVDRYLAVAHPFRFHQFRTLKAAVGVSVVIWAKELLTSIYFLMHEEVIEDENQHRVCFEHYPIQAWQRAINYYRFLVGFLFPICLLLASYQGILRAVRRSHGTQKSRKDQIQRLVLSTVVIFLACFLPYHVLLLVRSVWEASCDFAKGVFNAYHFSLLLTSFNCVADPVLYCFVSETTHRDLARLRGACLAFLTCSRTGRAREAYPLGAPEASGKSGAQGEEPELLTKLHPAFQTPNSPGSGGFPTGRLA

How the values were obtained:
[1] = variants of: B1; assay: cAMP reporter score (Enrich2 score, wild type = 0); higher = more signal; HEK293T, FACS bins
[2] = variants of: B1; assay: surface expression score (Enrich2 score, wild type = 0); higher = more signal; HEK293T, FACS bins

Variant	cAMP reporter score ([1]; pH 5.5)	cAMP reporter score ([1]; pH 6)	cAMP reporter score ([1]; pH 6, modulator: ogerin)	cAMP reporter score ([1]; pH 6.5, modulator: ogerin)	surface expression score [2]
C304Y	-0.639	-0.247	-0.655	-0.054	-0.834
C304_A306del	0.973	0.148	0.612	-0.266	0.363
C304_L305del	-0.219	-0.614	-0.122	-0.979	-0.143
C304_L305insG	0.197	0.355	-0.015	-0.211	-0.974
C304_L305insGSG	0.198		0.496	0.508	0.368
C304del	-0.241	-0.303	-0.518	-0.678	0.259
L305A	0.579	0.276	0.676	-0.275	1.1
L305C	0.795			1.63	0.77
L305D	0.764	0.224	0.643	0.889	-0.709
L305E	0.609	1.09	0.589	-0.077	0.146
L305F	1.24		0.541	0.879	0.765
L305G	-0.309		0.335	1.06	0.356
L305H	0.206	-0.673	0.308	0.635	0.59
L305I	1.28	0.468	0.654	1.02	1.84
L305K	0.129	-0.41	0.009	-0.526	-1.24
L305M	0.203	0.802	0.064	1.02	0.409
L305N	0.174	-1.05	0.328	0.207	0.79
L305P	0.143	-0.615	0.417	-0.039	0.15
L305Q	0.326		1.41	1.27	
L305R	-0.229	1.47	0.455	0.43	0.1
L305S	0.48	0.678	0.548	0.504	0.697

Variant	cAMP reporter score ([1]; pH 5.5)	cAMP reporter score ([1]; pH 6)	cAMP reporter score ([1]; pH 6, modulator: ogerin)	cAMP reporter score ([1]; pH 6.5, modulator: ogerin)	surface expression score [2]
L305T	0.576		-0.536	-0.381	2.07
L305V	0.413	0.395	0.494	0.629	0.718
L305W	0.34	-0.555	0.328	0.326	0.816
L305Y	1.46	0.358	0.957	1.31	0.909
L305_A306insG	1.01	0.759	0.993	1.15	0.406
L305del	-0.792	-1.03	-1.09	-1.23	-1.16
A306_F307insG	0.102	-0.361	0.385	0.385	0.121
A306_F307insGS	-0.186	-0.597	-0.607	-0.82	-1.13
A306_F307insGSG	0.842	0.248	0.937	0.193	0.456
A306_L308del	0.391	-0.23	0.174	0.316	-0.179
A306del	-0.124	-0.933	-0.158	-0.717	-0.931
F307_L308del	-0.137	0.197	0.417	-0.086	-0.025
F307_L308insG	-0.105	1.25	0.593	-0.353	-0.416
F307del	0.266	0.734	0.478	0.328	-0.091
L308_C310del	0.527	-0.581	0.742	0.973	-0.656
L308_T309del	1.14	1.34	0.887	1.59	1.28
L308_T309insGS	0.865	4.16	2.27	2.31	0.053
L308_T309insGSG	0.47	0.587	0.918	2.2	0.664
L308del	0.014	-0.727	0.069	-0.435	-0.467
T309A	-0.845	-1.77	-0.092	-0.676	-0.153
T309C	1.03		1.17	0.83	0.87

Variant	cAMP reporter score ([1]; pH 5.5)	cAMP reporter score ([1]; pH 6)	cAMP reporter score ([1]; pH 6, modulator: ogerin)	cAMP reporter score ([1]; pH 6.5, modulator: ogerin)	surface expression score [2]
T309D	0.659	0.377	0.694	1.29	0.48
T309E	1.54	-0.439	0.86	0.87	0.23
T309F	0.695	-0.547	0.343	0.436	-0.281
T309G	0.455	0.997	0.454	1.21	0.179
T309H	0.013	1.46	0.199	0.742	-0.186
T309I	-0.553	-0.253	-0.707	-0.497	-0.771
T309K	-0.221	0.079	-0.639	-0.085	-1.05
T309L	0.669	-0.084	0.608	0.52	-0.474
T309M	1.83	2.55		-0.432	-0.389
T309N	0.407	-0.215	0.229	0.496	0.166
T309P	0.518	0.064	-0.174	0.211	-0.279
T309Q	-0.154		-0.349	1.56	-0.3
T309S	0.609	0.845	0.559	0.527	-0.099
T309V	-0.528	-0.432	-0.895	-1.65	0.384
T309W	0.965		-0.065	-0.432	-0.395
T309Y	0.69	-0.076	0.312	0.195	-1.01
T309_C310insGS	0.997	0.983	0.712	1.69	1.25
C310A	0.743	2.09	0.968	1.84	0.415
C310D	1.32		1.41	1.69	0.376
C310E	-0.34	0.517	-0.58	0.182	-0.721
